Measurements published in PubChem BioAssay AID624202 (National Center for Advancing Translational Sciences (NCATS), 2012).
Out of some 380,000 compounds screened, about 4,000 (1.1%) were called active. Inconclusive means that the source gave no clear call. Such entries were picked first, then a sample of the others. Calls come from the whole dose curve; as a rule, active = well fitted activation curve with a large enough effect; inconclusive = small, poorly fitted or top-dose-only effect; inactive = no such curve, though single readings can be large or run the other way. Potencies beside an inconclusive call are fits to weak or partial responses and may not hold up.

Assay: qHTS Assay to Identify Small Molecule Activators of BRCA1 Expression; note: nearly all actives have a fitted effect of over 80% in size
Settings: MCF7-BRCA1-FFLuc reporter, luminescence, 48 h; activation: at 46.1 µM (top of the series), scaled: vehicle 0%, 10 µM genistein 100% unless noted
Method in brief: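 Luminescence from a BRCA1-driven firefly luciferase in MCF7 cells was read after 48 h compound exposure at 37 C. Data normalized against DMSO and a 10microM genistein activation control, then curve-fitted across the titration.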
Potency is the fitted concentration of half-maximal effect; tags give direction and shape of the fitted curve.

Q: With `COc1ccc(C(=S)Nc2ccc(N(C)C)cc2)cc1` as the compound, how does the Potency read?
A: inconclusive: 1.41 µM [activator, partial curve, poor fit]

Q: For `Cc1cccc(NC(=O)Nc2ccc(Cl)cc2)n1`, which Potency is on record?
A: inconclusive: 35.5 µM [activator, single point]

Q: For `CCOc1ccc(C(=O)NC(=S)Nc2ccccc2OC)cc1[N+](=O)[O-]`, which “activation” value is on record?
A: inactive: -3.28%

Q: For `Cc1snc(SCC(=O)c2ccc([N+](=O)[O-])cc2)c1C#N`, which “activation” value is on record?
A: inactive: 8.49%

Q: With `O=C(NCCc1c[nH]c2ccccc12)c1ccc(Cl)cc1` as the compound, how does the Potency read?
A: active: 3.55 µM

Q: With `CC(=O)c1ccc(N2CCN(c3ncccn3)CC2)cc1` as the compound, how does the Potency read?
A: active: 10 µM

Q: With `O=C(O)c1cccc(NC2=C(N3CCOCC3)C(=O)c3ccccc3C2=O)c1` as the compound, how does the Potency read?
A: inconclusive: 11.2 µM [activator, partial curve, poor fit]

Q: Which Potency does the source give for `Cc1nn(-c2ccc(C(=O)O)cc2)c(N)c1-c1ccccc1` here?
A: inconclusive: 0.501 µM [activator, full curve, poor fit]

Q: For `CNC(=S)N/N=C(\C)c1ccc(N2CCOCC2)cc1`, which Potency is on record?
A: active: 8.91 µM

Q: For `NC(=O)c1cnn(-c2ccc3ccccc3c2)c1N`, which Potency is on record?
A: inconclusive: 17.8 µM [activator, partial curve, poor fit]

Q: For `Cc1ccc(S(=O)(=O)N(C)CCCC(=O)Nc2ccncc2)cc1`, which “activation” value is on record?
A: inactive: 0%

Q: Which activation does the source give for `C/C(N)=C(/C#N)C(=O)CSc1nnc(-c2ccc3c(c2)OCO3)o1` here?
A: inconclusive: -44.1% [activator]

Q: Which Potency does the source give for `N/C(=N\OC(=O)c1ccccc1F)c1ccc([N+](=O)[O-])cc1` here?
A: active: 2.82 µM

Q: For `CCNC(=O)c1sc(-c2ccccc2)nc1C`, which Potency is on record?
A: inconclusive: 11.2 µM [activator, partial curve, poor fit]

Q: For `O=C(CSc1ccc(-c2ccco2)nn1)NCCc1ccccc1`, which “activation” value is on record?
A: inactive: -14.8%

Q: With `O=C(CCCc1ccccc1)N1CCc2ccccc21` as the compound, how does the Potency read?
A: inconclusive: 1.78 µM [activator, full curve, poor fit]

Q: With `O=C(Nc1ccc(-c2nc3ccccc3[nH]2)cc1)C1CCCO1` (configuration not stated) as the compound, how does the “activation” value read?
A: inactive: 3.49%

Q: Which Potency does the source give for `Cc1cc2nc(SCCN3CCOCC3)[nH]c2cc1C` here?
A: active: 4.47 µM

Q: For `c1ccc2[nH]c(SCc3ccc(-c4nnco4)cc3)nc2c1`, which Potency is on record?
A: inconclusive: 12.6 µM [activator, partial curve, poor fit]

Q: With `c1ccc(-c2cc3ccccc3cn2)cc1` as the compound, how does the Potency read?
A: inconclusive: 3.55 µM [activator, full curve, poor fit]

Q: For `O=CN1CCN(C(=O)c2ccc(-c3nc4ccccc4s3)s2)CC1`, which Potency is on record?
A: inconclusive: 1.58 µM [activator, partial curve, poor fit]

Q: With `O/N=C/c1ccc(OCc2ccccc2)c(Br)c1` as the compound, how does the Potency read?
A: inconclusive: 14.1 µM [activator, single point]

Q: With `O=C(CSc1ccccn1)Nc1ccc2c(c1)OCCO2` as the compound, how does the Potency read?
A: active: 11.2 µM

Q: With `Clc1ccc(CON/C=N/c2ncnc3sccc23)cc1` as the compound, how does the “activation” value read?
A: inactive: -26.4%

Q: With `Cc1ccc(-c2csc(NC(=O)/C=C/c3ccco3)c2C(=O)O)cc1` as the compound, how does the Potency read?
A: inconclusive: 2 µM [activator, partial curve, poor fit]

Q: Which Potency does the source give for `COc1ccc(C(=O)Nc2nc3ccccc3[nH]2)cc1S(=O)(=O)N1CCCC1` here?
A: inconclusive: 35.5 µM [activator, single point]

Q: For `Cc1ccc(NC(=O)c2cnccn2)cc1C`, which Potency is on record?
A: active: 7.94 µM

Q: With `O=C(CCNC(=O)c1ccc(Cl)cc1)Nc1cccc(S(=O)(=O)N2CCCCCC2)c1` as the compound, how does the “activation” value read?
A: inactive: -43.5%

Q: With `O=C(N/N=C/c1ccc2c(c1)OCO2)c1cccs1` as the compound, how does the Potency read?
A: inconclusive: 0.891 µM [activator, full curve, poor fit]

Q: Which Potency does the source give for `COc1cc(/C=N/NC(=O)c2ccccn2)cc2c1OCO2` here?
A: inconclusive: 6.31 µM [activator, partial curve, poor fit]

Q: For `COc1ccc(NC(=O)CC2CC3CCC2C3)cn1` (configuration not stated), which Potency is on record?
A: active: 12.6 µM

Q: Which Potency does the source give for `O=c1c2ccccc2nnn1CSc1nc2ccccc2[nH]1` here?
A: inconclusive: 2 µM [activator, full curve, poor fit]

Q: For `CC(C)Cc1cc(C(=O)N2CCCC(C(=O)c3cc(F)ccc3F)C2)no1` (configuration not stated), which “activation” value is on record?
A: inactive: -6.05%

Q: Which Potency does the source give for `N#Cc1ccccc1COC(=O)c1ccc2c(c1)OCO2` here?
A: inconclusive: 35.5 µM [activator, partial curve, poor fit]

Q: With `O=C(Nc1ccc2c(c1)OCCO2)NC1CCCCC1` as the compound, how does the Potency read?
A: inconclusive: 0.631 µM [activator, full curve, poor fit]

Q: For `CCOC(=O)N/N=C\c1cccc(OC)c1OC/C=C/c1ccccc1`, which “activation” value is on record?
A: inactive: 5.02%

Q: With `COc1cc(SC)ccc1C(=O)NNC(=O)c1cc(C)oc1C` as the compound, how does the Potency read?
A: inconclusive: 2.51 µM [activator, partial curve, poor fit]

Q: Which activation does the source give for `CCCCCCn1c2c(c(=N)c3c1CCC3)CCC2` here?
A: inconclusive: -94.2% [activator]

Q: For `O=C(c1cc2cc(Cl)ccc2o1)N1CCCCCC1`, which Potency is on record?
A: inconclusive: 12.6 µM [activator, partial curve, poor fit]

Q: For `O=C(CSc1ccc([N+](=O)[O-])cc1)c1ccccc1`, which Potency is on record?
A: inconclusive: 31.6 µM [activator, single point]

Q: With `O=C(Nc1cccc(Cn2cccn2)c1)c1cc2c(s1)CCCC2` as the compound, how does the Potency read?
A: inconclusive: 1.78 µM [activator, full curve, poor fit]

Q: Which Potency does the source give for `Cc1cc2nc(N3CCN(C(=O)c4ccco4)CC3)sc2cc1C` here?
A: inconclusive: 1.58 µM [activator, full curve, poor fit]

Q: With `CN(C)c1ccc(NC(=O)Nc2cccc(Cl)c2)cc1` as the compound, how does the Potency read?
A: inconclusive: 6.31 µM [activator, full curve, poor fit]

Q: With `CC(O/N=C\c1ccccc1O)C(=O)Nc1ccccc1C(=O)N1CCOCC1` (configuration not stated) as the compound, how does the “activation” value read?
A: inactive: -2.74%

Q: With `Cc1cc(OCc2cc(C(=O)N(C)CC3CCOCC3)no2)cc(C)c1Cl` as the compound, how does the Potency read?
A: inconclusive: 25.1 µM [activator, single point]

Q: Which activation does the source give for `NC(=Nc1nc(-c2ccccn2)cc2ccccc12)c1ccccn1` here?
A: inconclusive: -83% [activator]

Q: With `CC(=O)Nc1ccc(C=CC=Cc2cccc([N+](=O)[O-])c2)cc1` as the compound, how does the Potency read?
A: active: 5.01 µM

Q: With `CCOc1ccc2nc(NC(=O)Cc3cccs3)sc2c1` as the compound, how does the Potency read?
A: inconclusive: 1.26 µM [activator, full curve, poor fit]

Q: For `Cn1cccc1/C=C1\Cc2ccccc2C1=O`, which “activation” value is on record?
A: inactive: 2.97%

Q: With `CC(C)n1nnc(-c2ccc(OCc3ccccc3F)cc2)n1` as the compound, how does the Potency read?
A: active: 4.47 µM

Q: With `COc1ccc(NC(=S)N/C(=N/S(=O)(=O)c2ccc(C)cc2)c2ccccc2)cc1` as the compound, how does the Potency read?
A: inconclusive: 14.1 µM [activator, single point]

Q: For `O=C(CSC(=S)N1CCSCC1)c1ccccc1`, which Potency is on record?
A: inconclusive: 0.891 µM [activator, full curve, poor fit]

Q: Which Potency does the source give for `Cc1nc2sc(C(N)=O)c(N)c2c(C)c1CC(=O)c1ccccc1` here?
A: active: 11.2 µM

Q: Which Potency does the source give for `Cc1cccc(NC(=O)c2cc(-c3cc(C)c(C)cc3O)n[nH]2)c1` here?
A: inconclusive: 1.12 µM [activator, full curve, poor fit]

Q: For `O=C(O)c1ccc(NCc2nc3ccccc3n2CCOc2ccccc2Cl)cc1`, which Potency is on record?
A: inconclusive: 35.5 µM [activator, single point]

Q: With `CCC(=O)N/C(N)=N/c1nc2ccccc2o1` as the compound, how does the Potency read?
A: active: 2 µM

Q: With `COc1cccc(C(=O)Nc2nc3ccccc3[nH]2)c1` as the compound, how does the Potency read?
A: inconclusive: 0.631 µM [activator, full curve, poor fit]

Q: Which Potency does the source give for `O=C(CCc1ccccc1)Nc1nc2c(F)cc(F)cc2s1` here?
A: active: 10 µM

Q: With `O=C(Nc1nccs1)c1ccc(-c2ccc(F)cc2)o1` as the compound, how does the Potency read?
A: inconclusive: 1.78 µM [activator, full curve, poor fit]

Q: Which Potency does the source give for `O=C(c1cccc(-c2nnc(-c3ccccc3)o2)c1)N1CCCCC1` here?
A: inconclusive: 11.2 µM [activator, partial curve, poor fit]

Q: Which Potency does the source give for `CCNc1oc(COc2cccc(C)c2)nc1C#N` here?
A: active: 11.2 µM

Q: With `O=C1c2ccccc2NC2(CCCCC2)N1c1ccc(O)cc1` as the compound, how does the Potency read?
A: active: 11.2 µM

Q: With `O=C(c1ccc(OC(F)(F)F)cc1)c1ncc[nH]1` as the compound, how does the Potency read?
A: inconclusive: 12.6 µM [activator, partial curve, poor fit]

Q: Which “activation” value does the source give for `O=C(OC[C@H]1O[C@@H](OC(=O)c2cc(O)c(O)c(OC(=O)c3cc(O)c(O)c(O)c3)c2)[C@H](OC(=O)c2cc(O)c(O)c(OC(=O)c3cc(O)c(O)c(O)c3)c2)[C@@H](OC(=O)c2cc(O)c(O)c(OC(=O)c3cc(O)c(O)c(O)c3)c2)[C@@H]1OC(=O)c1cc(O)c(O)c(OC(=O)c2cc(O)c(O)c(O)c2)c1)c1cc(O)c(O)c(OC(=O)c2cc(O)c(O)c(O)c2)c1` here?
A: inactive: -0.101%

Q: For `COc1ccc(-n2cc(CNC(C)c3ccncn3)c(-c3cccc(F)c3)n2)cc1` (configuration not stated), which “activation” value is on record?
A: inactive: 0%

Q: For `Cc1ccc(NC(=O)c2cccc(Cl)c2)nc1`, which Potency is on record?
A: inconclusive: 28.2 µM [activator, single point]

Q: With `CCN(CC)S(=O)(=O)c1cccc(C(=O)NCCc2ccccc2)c1` as the compound, how does the Potency read?
A: active: 6.31 µM

Q: For `C[n+]1c2n(c3ccccc31)N=C(c1ccc(Br)cc1)CS2`, which activation is on record?
A: inconclusive: -92.5% [activator]

Q: Which Potency does the source give for `O=C(Cn1cnc2ccccc2c1=O)c1ccc2c(c1)OCCO2` here?
A: inconclusive: 1.41 µM [activator, full curve, poor fit]

Q: Which Potency does the source give for `O=C(NCCc1ccccc1)c1ccco1` here?
A: inconclusive: 12.6 µM [activator, partial curve, poor fit]

Q: With `Cc1cc(NC(=O)c2ccccc2[N+](=O)[O-])ccc1Br` as the compound, how does the Potency read?
A: inconclusive: 12.6 µM [activator, partial curve, poor fit]

Q: Which Potency does the source give for `c1ccc(-c2cc3nccc(-c4ccccn4)n3n2)cc1` here?
A: inconclusive: 2 µM [activator, partial curve, poor fit]
